Among all 310,000 compounds or so, about 14,000 (4.5%) showed an effect of 50% or more. Effects have a minus sign here. This is one part of the list.
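Also: peak tail current of the secondary pulse compared with the same well before compound.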

Sequence of human ether-à-go-go-related gene (hERG) potassium channel (Q12809 whole entry, looked up): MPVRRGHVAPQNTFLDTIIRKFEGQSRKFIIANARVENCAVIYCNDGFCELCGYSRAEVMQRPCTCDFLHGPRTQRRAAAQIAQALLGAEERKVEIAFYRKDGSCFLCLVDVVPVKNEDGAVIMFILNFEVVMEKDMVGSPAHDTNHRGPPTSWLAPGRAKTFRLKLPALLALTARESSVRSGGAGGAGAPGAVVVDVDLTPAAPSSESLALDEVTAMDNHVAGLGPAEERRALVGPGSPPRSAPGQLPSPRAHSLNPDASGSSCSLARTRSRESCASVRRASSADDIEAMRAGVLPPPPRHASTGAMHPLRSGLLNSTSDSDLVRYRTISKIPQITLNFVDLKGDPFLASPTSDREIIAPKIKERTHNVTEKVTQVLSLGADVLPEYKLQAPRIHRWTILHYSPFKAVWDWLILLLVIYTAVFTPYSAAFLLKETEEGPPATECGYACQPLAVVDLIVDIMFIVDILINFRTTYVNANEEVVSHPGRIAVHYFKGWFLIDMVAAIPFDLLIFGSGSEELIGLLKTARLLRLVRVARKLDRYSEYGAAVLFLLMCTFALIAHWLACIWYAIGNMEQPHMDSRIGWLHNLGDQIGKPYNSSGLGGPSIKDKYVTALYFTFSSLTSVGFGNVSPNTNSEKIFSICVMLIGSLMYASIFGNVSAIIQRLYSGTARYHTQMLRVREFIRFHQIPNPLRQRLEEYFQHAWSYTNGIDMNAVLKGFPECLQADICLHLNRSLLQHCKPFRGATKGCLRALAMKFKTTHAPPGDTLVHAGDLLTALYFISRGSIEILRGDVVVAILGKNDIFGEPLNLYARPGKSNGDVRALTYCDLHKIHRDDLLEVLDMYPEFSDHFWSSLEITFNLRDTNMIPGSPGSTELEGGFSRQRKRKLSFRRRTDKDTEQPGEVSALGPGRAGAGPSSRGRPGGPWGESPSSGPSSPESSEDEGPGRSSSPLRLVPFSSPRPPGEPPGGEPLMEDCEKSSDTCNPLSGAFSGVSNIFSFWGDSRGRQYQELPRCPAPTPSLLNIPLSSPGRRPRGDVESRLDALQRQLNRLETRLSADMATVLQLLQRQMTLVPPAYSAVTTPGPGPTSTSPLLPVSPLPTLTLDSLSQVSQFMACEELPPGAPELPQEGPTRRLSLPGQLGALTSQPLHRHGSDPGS

The assay concerns the target human ether-à-go-go-related gene (hERG) potassium channel (human, UniProt Q12809). Description: primary screen, population patch clamp on CHO cells stably expressing hERG.
As to `C=CCNC(=O)c1c2c(nc3ccccc13)-c1ccccc1CC2`, the “hERG current change (%, negative = inhibition) at 10uM” value is on record as -46.4%.

Regarding `O=C(O)C1CC(=O)N(c2ccc(F)cc2)C1` (centres unmarked), the “hERG current change (%, negative = inhibition) at 10uM” value stood at 14.1%. Consider `Cc1ccc(N2C(=O)c3ccc(C(=O)O)cc3C2=O)c(C)c1`, for which the “hERG current change (%, negative = inhibition) at 10uM” value was 15.3%.

As for `Cn1ccc(CC(=O)N2CCC(N3CCC(C(=O)N4CCCC4)CC3)CC2)c1`, the “hERG current change (%, negative = inhibition) at 10uM” value is listed as -9.36%.

For `COc1cc(CNCc2ccc(C(=O)O)cc2)ccc1OCc1ccc(F)cc1.Cl`, the “hERG current change (%, negative = inhibition) at 10uM” value came out at 19.6%. Take `CCOc1ccccc1NC(=O)C(OC(=O)c1ccccc1)c1ccccc1` (centres unmarked): the “hERG current change (%, negative = inhibition) at 10uM” value worked out at 26.1%.

Consider `O=C(CNCc1cccs1)Nc1cc(S(=O)(=O)N2CCCC2)ccc1Cl`, for which the “hERG current change (%, negative = inhibition) at 10uM” value was -52%. On to `O=C(NC1CCCC1)C(c1ccccc1)N(C(=O)c1ccco1)C1CCCC1` (centres unmarked), for which the “hERG current change (%, negative = inhibition) at 10uM” value was -3.48%.

Take `CCCCN(Cc1cccs1)S(=O)(=O)c1csc(C(N)=O)c1`: the “hERG current change (%, negative = inhibition) at 10uM” value is listed as -34.8%. To `CC(=O)N1CCN(C(=O)CSc2nc3c(cnn3-c3ccccc3)c(=O)[nH]2)CC1` belongs -9.1%; to `O=C(CN1CCC(c2nc3ccccc3s2)CC1)NCc1ccccc1`, -67.5%; to `O=C(Nc1ccccc1)ON=C1CCCC1`, -17.9%. Take `COc1cc(/C=C(\C#N)C(=O)Nc2cc(C(F)(F)F)ccc2Cl)ccc1OCC(=O)Nc1cccc(C(F)(F)F)c1`: the “hERG current change (%, negative = inhibition) at 10uM” value came out at 12%. In the case of `COc1ccc(Br)cc1CN1CCN(C(=O)c2ccc(F)cc2)CC1.O=C(O)C(=O)O` it was -13.3%; in that of `COCC(=O)Oc1c(S(=O)(=O)c2ccc(C)cc2)c(C)nn1C(C)(C)C`, 16.7%.

Take `CCn1c(SCC(=O)N2CCN(C)CC2)nc2c1c(=O)n(C)c(=O)n2C`: the “hERG current change (%, negative = inhibition) at 10uM” value was found to be 3.83%. As to `COc1ccccc1N1CCN(C(=O)CCCN2C(=O)c3cccc4cccc(c34)C2=O)CC1.Cl`, the “hERG current change (%, negative = inhibition) at 10uM” value is listed as -70.9%. In the case of `COCCN(CCOC)S(=O)(=O)c1ccc(NC(=O)c2cnccn2)cc1` it was 13.1%; in that of `Cc1cc(C)nc(-n2nc(C)cc2NC(=O)c2ccc(S(=O)(=O)N3CCOCC3)cc2)n1`, -9.21%. To `O=C(NCc1cccs1)c1cccnc1Cl` belongs 2.74%; to `CCOc1cc(C2NC(=O)N(C)C(C)=C2[N+](=O)[O-])ccc1OC(C)=O` (centres unmarked), 18.7%.

Take `Cc1nc(NC(=O)C2CC2)sc1C(=O)Nc1ccccc1Cl`: the “hERG current change (%, negative = inhibition) at 10uM” value worked out at 21.3%. To `Cn1c2c(c(=O)n(C)c1=O)C(C(F)(F)F)(C(F)(F)F)N=C(c1ccccc1Cl)N2` belongs 21.8%; to `CCOC(=O)C1CCCN(C(=O)c2cccc3ccccc23)C1` (centres unmarked), 4.99%; to `Cc1ccc(OCC(=O)Nc2cccc(-c3nnc(-c4ccccc4)o3)c2)c(C)c1`, -7.48%. In the case of `CCOc1ccccc1Nc1nnc(SCC(=O)Nc2nc(-c3ccc(OC)cc3)cs2)s1` it was 3.33%; in that of `CCOc1ccccc1NC(=O)COc1ccc2c(c1)OCO2`, 16.3%. To `CCN(C(=O)Cc1c(C(=O)O)[nH]c2ccccc12)c1cc(OC)ccc1OC` belongs 1.38%; to `CN(C(=O)CSc1nnc(-c2ccncc2)n1C)C1CCS(=O)(=O)C1` (centres unmarked), 8.82%; to `COc1ccc(Cl)cc1NC(=O)CCN1CCN(Cc2ccccc2)CC1`, -64.6%. Take `COC(=O)Nc1nnc(CC(=O)Nc2ccccc2C)s1`: the “hERG current change (%, negative = inhibition) at 10uM” value is on record as -36.5%. To `CCCC(=O)N1CCCC(C(=O)c2cccc(OC(C)C)c2)C1` (centres unmarked) belongs 3.64%; to `COC(=O)c1cccc(N2C(=O)c3cccnc3C2=O)c1`, 0.872%. To `O=C(CCS(=O)(=O)c1ccc2c(c1)NC(=O)CS2)NCc1cccs1` belongs -21.3%; to `C#CC1(NC(=O)NS(=O)(=O)c2ccc(C)cc2)CCCCC1`, -12.7%; to `Cc1c(CCC(=O)NCCCCCC(=O)O)c(=O)oc2c(C)c3oc4c(c3cc12)CCCC4`, 21%. As to `Cc1ccc(NC(=O)CN(C)S(=O)(=O)c2cccs2)cc1C`, the “hERG current change (%, negative = inhibition) at 10uM” value was -9.54%. In the case of `COc1ccc(NC(=O)CSc2nnc(-c3ccncc3)n2C)cc1` it was 26.5%; in that of `CN(C)c1nc(N)nc(Cn2nnc(-c3ccc(C(F)(F)F)cc3)n2)n1`, 33.1%. To `CN(C)/N=C/c1c(O)ccc2ccccc12` belongs -4.31%. Take `O=C(C/C=N\OCc1ccc([N+](=O)[O-])cc1)Nc1ccc(F)cc1F`: the “hERG current change (%, negative = inhibition) at 10uM” value is -27.1%. In the case of `COc1ccc(C(=O)O)cc1NC(=S)NC(=O)Cc1ccc(Cl)cc1` it was 27.6%.

For `O=C(c1ccc2c(=O)n3c(nc2c1)CCCCC3)N1CCN(c2cccc(Cl)c2)CC1`, the “hERG current change (%, negative = inhibition) at 10uM” value is -41.2%. To `Cc1cc(C)cc(-n2c(C)nc3cc(C(=O)O)ccc32)c1` belongs 15.9%; to `O=C(Nc1ncc(C(F)(F)F)cc1Cl)C1COc2ccccc2O1` (centres unmarked), -3.76%; to `CCCCN(C(=O)CCC(=O)Nc1cc(C)on1)C(C(=O)NC(C)(C)CC)c1cccc(OC)c1OC` (centres unmarked), 1.4%.

Take `Cc1cc(C)cc(OCC(=O)NNC(=O)c2ccoc2C)c1`: the “hERG current change (%, negative = inhibition) at 10uM” value was 12.1%. In the case of `Cc1ccc2[nH]c(C(=O)N/N=C/c3ccccc3O)c(C)c2c1` it was 28.6%; in that of `COCCOC1CCN(C(=O)C2CCC(=O)N(CCc3cccc(F)c3)C2)CC1` (centres unmarked), 0.0129%. To `Cc1ccc(S(=O)(=O)NCC(=O)OCC(=O)Nc2ccc3c(c2)OCCO3)cc1` belongs -6.88%. In the case of `c1ccc(Cn2nnnc2C(c2cccnc2)N2CCN(c3ccccc3)CC2)cc1` (centres unmarked) it was -22.5%; in that of `Cc1ccc(NC(=O)CCNS(=O)(=O)c2cccc3nonc23)cc1`, 1.21%; in that of `CCOc1cccc(N2C(=O)/C(=C/c3ccco3)C(=O)NC2=S)c1`, 17.6%. On to `COc1cccc(C(=O)Nc2ccc3c(c2)CCCN3C(=O)c2cccs2)c1OC`, for which the “hERG current change (%, negative = inhibition) at 10uM” value is -5.76%. `CCOc1cc(C(c2c(C)[nH][nH]c2=O)c2c(C)[nH][nH]c2=O)ccc1OS(=O)(=O)c1ccc(C)cc1`: the “hERG current change (%, negative = inhibition) at 10uM” value was 7.37%. In the case of `Cc1cccc(C(=O)NCC(=O)OCc2nnc(-c3ccccc3)o2)c1` it was -5.96%. `Cc1cc(C)n(CCCNC(=O)Cn2nnnc2CN2C[C@@H](C)O[C@@H](C)C2)n1`: the “hERG current change (%, negative = inhibition) at 10uM” value turned out to be 6.72%. To `COc1ccccc1NC(=O)NCCCl` belongs 17%. In the case of `CCCOC(=O)Nc1nnc(CCC)s1` it was -5.41%; in that of `Cc1cc(C)c(NC(=O)Cn2cc3c(n2)CCCC3)c(C)c1`, 10.4%; in that of `CS/C(N)=N/N=C/c1ccc([N+](=O)[O-])cc1.I`, -25.4%. To `CCCSc1nnc2n(C)c(=O)c3c4c(sc3n12)CCC4` belongs -71.5%. On to `Cc1cc(NS(=O)(=O)c2ccc(NC(=O)c3ccco3)cc2)nc(C)n1`, for which the “hERG current change (%, negative = inhibition) at 10uM” value came out at 3%. To `COC(=O)c1c(NC(=O)C2CC=CCC2C(=O)O)sc(C)c1C` (centres unmarked) belongs -13.4%. To `O=C1NC(c2cccs2)Nc2ccccc21` (centres unmarked) belongs -1.84%.

Regarding `COc1ccc(CSc2nc(C)[nH]c2[N+](=O)[O-])cc1[N+](=O)[O-]`, the “hERG current change (%, negative = inhibition) at 10uM” value was 4.63%.

Regarding `COc1cc(/C=N/NC(=O)CCn2c3ccccc3c3ccccc32)cc(OC)c1OC`, the “hERG current change (%, negative = inhibition) at 10uM” value is listed as 6.78%.

As to `CCOCCCNC(=O)c1ccccc1NC(=O)C1=C(C)OCCS1`, the “hERG current change (%, negative = inhibition) at 10uM” value amounted to 17.3%. In the case of `O=C(NCCC1=CCCCC1)C1CC(=O)N(C2CCCCC2)C1` (centres unmarked) it was -4.32%; in that of `O=C(COC(=O)Cc1ccc(Cl)cc1Cl)Nc1ccc(OC(F)F)cc1`, 26.9%; in that of `CC(C)(C)Sc1ccc2nc3c(n2c1)CCCC3.Cl`, -25.6%. In the case of `CCCC(=O)c1cc(CP(=O)(OCC)OCC)oc1C` it was 12.8%; in that of `Cn1cccc1C(=O)NC1CCCCCC1`, 4.23%; in that of `O=[N+]([O-])c1ccc2nc(-c3ccc(Cl)cc3)n(OCc3ccccc3)c2c1`, 13.2%.

As to `COc1cccc(-c2nnc(SCc3nc4ccccc4s3)n2C)c1`, the “hERG current change (%, negative = inhibition) at 10uM” value is -29%. In the case of `Cc1cc(C)c(S(=O)(=O)N2CCCOC2CNC(=O)C(=O)NCc2cccs2)c(C)c1` (centres unmarked) it was -8.31%; in that of `COC/C=C/C1=CC2=CC(=O)C(C)(OC(=O)c3cnc4ccccc4n3)C(=O)C2=CN1c1ccccc1` (centres unmarked), -9.84%; in that of `O=[N+]([O-])c1ccc(N2CCN(Cc3ccccc3)CC2)s1`, -27.1%. For the compound `Cc1ccc(O)c(NC(=S)NC(=O)c2ccccc2Cl)c1`, the “hERG current change (%, negative = inhibition) at 10uM” value is given as 13.3%. To `CCC(=O)Nc1cccc(Br)c1` belongs 12.7%. In the case of `Cc1ccc(/C(N)=N/OC(=O)CCC2CCCC2)cc1` it was -5.25%; in that of `Brc1csc(/C=N/Nc2nc3ccccc3s2)c1`, 3.78%. With `COc1ccccc1NC(=O)c1ccc(S(=O)(=O)N2CCOCC2)cc1`, the “hERG current change (%, negative = inhibition) at 10uM” value is 1.89%. In the case of `O=C(c1ccco1)N1N=C(c2cccs2)CC1c1ccco1` (centres unmarked) it was 13.8%; in that of `Br.CCn1c2c(c(=N)c3c1CCC3)CCCC2`, -2.41%.

Turning to `NC(=O)[C@@H]1CCCN1C(=O)c1ccc2oc(CCc3ccccc3)nc2c1`, the “hERG current change (%, negative = inhibition) at 10uM” value stood at 3.06%. To `O=C(COc1cccc2cccnc12)NNC(=O)Nc1ccccc1` belongs 1.8%; to `O=C(/C=C/c1ccccc1)NC(=S)N1C[C@H]2C[C@H](C1)c1cccc(=O)n1C2`, -15%; to `COc1ccc(NC(=O)CSc2c3c(nc4cc(Cl)ccc24)CCCC3)cc1OC`, -25%.

The values are drawn from paper PMC4336329 (PLoS ONE, 2015).
